The values below come from the BET-seq Pho4 binding data (Le et al. 2018).

Some of the results follow. The energies were worked out here from pooled read counts, against the library average; single values are noisy.

The assay addresses T1, Pho4 (S. cerevisiae) (UniProt P07270).
T1 sequence: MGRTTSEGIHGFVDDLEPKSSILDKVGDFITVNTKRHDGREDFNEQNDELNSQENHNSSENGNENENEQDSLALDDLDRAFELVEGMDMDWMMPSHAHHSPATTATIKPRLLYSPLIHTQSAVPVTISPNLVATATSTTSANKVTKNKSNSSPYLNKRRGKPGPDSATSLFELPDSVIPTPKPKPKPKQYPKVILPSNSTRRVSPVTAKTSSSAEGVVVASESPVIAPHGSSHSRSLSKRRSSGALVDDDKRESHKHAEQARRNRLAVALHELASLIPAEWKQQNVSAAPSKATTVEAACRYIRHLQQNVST
In words: relative binding free energy (BET-seq); higher = weaker binding. The note with it: reference: library average.
In the case of AATATCACGTGGTAGC, the “relative binding free energy” value came to 0.35 kcal/mol.
TACATCACGTGTGATG: the “relative binding free energy” value came out at 0.42 kcal/mol.
Consider CGTTGCACGTGCAGGT, for which the “relative binding free energy” value was -0.01 kcal/mol.
Consider TGATGCACGTGATGGG, for which the “relative binding free energy” value amounted to 0 kcal/mol.
Turning to GATATCACGTGTAATG, the “relative binding free energy” value is 0.11 kcal/mol.
With AAATGCACGTGGTAAT, the “relative binding free energy” value was -0.01 kcal/mol.
As to TTCTTCACGTGGTTGC, the “relative binding free energy” value is 0.26 kcal/mol.
As for AGGTTCACGTGTATTC, the “relative binding free energy” value was found to be 0.3 kcal/mol.
GTGTGCACGTGATCAT: the “relative binding free energy” value is 0.14 kcal/mol.
Turning to GAGGGCACGTGGTGGC, the “relative binding free energy” value is -0.1 kcal/mol.
The figure for TTTTACACGTGGCAGT is 0.1 kcal/mol; for CATGGCACGTGGTCGT it is -0.15 kcal/mol.
Take TGTGGCACGTGATCGC: the “relative binding free energy” value was -0.06 kcal/mol.
Take TATTTCACGTGCGGGA: the “relative binding free energy” value came to 0.21 kcal/mol.
Turning to TTGGACACGTGGCAGT, the “relative binding free energy” value was -0.15 kcal/mol.
Then TATAGCACGTGCTGTG, with -0.19 kcal/mol; and GGGAGCACGTGCTGAT, with -0.08 kcal/mol; and TCTTGCACGTGGGGTG, with -0.11 kcal/mol.
The figure for CTGTCCACGTGGGGAT is -0.09 kcal/mol; for TATTTCACGTGTAATG it is 0.3 kcal/mol; for TGATTCACGTGGCTTT it is 0.24 kcal/mol.
Take TATTGCACGTGTTCGG: the “relative binding free energy” value was -0.02 kcal/mol.
In the case of GCGGGCACGTGTGACG, the “relative binding free energy” value worked out at 0.03 kcal/mol.
On to TATTGCACGTGGTTAC, for which the “relative binding free energy” value amounted to 0.03 kcal/mol.
Regarding TTAATCACGTGTGGTT, the “relative binding free energy” value is 0.19 kcal/mol.
Turning to GGTTCCACGTGTTTGA, the “relative binding free energy” value worked out at 0.26 kcal/mol.
For the sequence GATATCACGTGGTTGT, the “relative binding free energy” value was determined as 0.16 kcal/mol.
As for GTTTTCACGTGTCCTT, the “relative binding free energy” value was determined as 0.19 kcal/mol.
In the case of TGGTACACGTGATTTC, the “relative binding free energy” value came out at 0.12 kcal/mol.
For the sequence TTTATCACGTGGTGAT, the “relative binding free energy” value is 0.1 kcal/mol.
As to TAGCACACGTGCGGGG, the “relative binding free energy” value is -0.06 kcal/mol.
In the case of TCTTACACGTGTGGTC, the “relative binding free energy” value was 0.21 kcal/mol.
For the sequence ATATGCACGTGGTTTT, the “relative binding free energy” value was -0.15 kcal/mol.
Consider GGTACCACGTGTTGCG, for which the “relative binding free energy” value was found to be 0 kcal/mol.
On to TCATGCACGTGTGTTA, for which the “relative binding free energy” value is -0.11 kcal/mol.
The figure for TAGCTCACGTGGTGTG is 0.21 kcal/mol; for GACGGCACGTGTTAAG it is 0.21 kcal/mol; for TTATACACGTGGTTAT it is -0.1 kcal/mol.
In the case of GGTTTCACGTGCATGG, the “relative binding free energy” value is 0.32 kcal/mol.
Then AATATCACGTGTTTGT, with 0 kcal/mol; and TGGCTCACGTGTAGTT, with 0.36 kcal/mol.
On to GGGGTCACGTGAGCGA, for which the “relative binding free energy” value is 0.28 kcal/mol.
Consider GTCTACACGTGAGGGA, for which the “relative binding free energy” value turned out to be 0.27 kcal/mol.
As for TCAGCCACGTGGTGGG, the “relative binding free energy” value was -0.23 kcal/mol.
For the sequence TGGTGCACGTGACGGA, the “relative binding free energy” value is 0.12 kcal/mol.
Then GTTGACACGTGGCCGG, with -0.09 kcal/mol.
As to AAAGGCACGTGATATA, the “relative binding free energy” value was found to be 0.08 kcal/mol.
As for GGGAGCACGTGTGCAG, the “relative binding free energy” value is -0.14 kcal/mol.
Regarding TGAGGCACGTGTCTAG, the “relative binding free energy” value was -0.12 kcal/mol.
Regarding CGGCTCACGTGGTCGG, the “relative binding free energy” value stood at 0.16 kcal/mol.
The figure for ATGTTCACGTGCAGAG is 0.29 kcal/mol; for TTAGGCACGTGCTAGA it is -0.19 kcal/mol; for GAATGCACGTGGTAGA it is -0.03 kcal/mol.
With GCCGGCACGTGGTTGA, the “relative binding free energy” value was -0.05 kcal/mol.
Regarding GGGAGCACGTGGTGCG, the “relative binding free energy” value was -0.25 kcal/mol.
The figure for GTGGGCACGTGCGAGG is -0.16 kcal/mol.
Regarding GAGGGCACGTGGTAAT, the “relative binding free energy” value is -0.15 kcal/mol.
The figure for ACGGGCACGTGGGCTT is -0.23 kcal/mol; for TCGGTCACGTGGGAAA it is 0.09 kcal/mol.
Regarding GGCGCCACGTGGGTTG, the “relative binding free energy” value was -0.12 kcal/mol.
The figure for TACTTCACGTGCGGTT is 0.16 kcal/mol; for CATTGCACGTGTAGTA it is 0.2 kcal/mol.
Regarding AGCGTCACGTGAGTGG, the “relative binding free energy” value amounted to 0.18 kcal/mol.
For AAATGCACGTGTAGGT, the “relative binding free energy” value was determined as 0.21 kcal/mol.
TTTGACACGTGACAGG: the “relative binding free energy” value worked out at 0.14 kcal/mol.
Then TTTTACACGTGGGTTG, with -0.03 kcal/mol.
In the case of TGTTACACGTGGCGAG, the “relative binding free energy” value was 0.17 kcal/mol.
Regarding CTGTTCACGTGGGTTT, the “relative binding free energy” value was determined as 0.17 kcal/mol.
For the sequence TGGGGCACGTGATTCA, the “relative binding free energy” value is -0.02 kcal/mol.
On to GGTCACACGTGGGAGT, for which the “relative binding free energy” value worked out at 0.01 kcal/mol.
Take GGTGGCACGTGCGCGC: the “relative binding free energy” value is -0.22 kcal/mol.
On to GTCATCACGTGGATGG, for which the “relative binding free energy” value came out at 0.26 kcal/mol.
AGGTGCACGTGTCGGG: the “relative binding free energy” value turned out to be 0.02 kcal/mol.
As for ATTGCCACGTGAAGGT, the “relative binding free energy” value came out at 0.1 kcal/mol.
Turning to GGAGTCACGTGGGGCC, the “relative binding free energy” value was found to be 0.04 kcal/mol.
Then CTGGACACGTGGCGGG, with 0.03 kcal/mol.
For the sequence GTATTCACGTGTTTTG, the “relative binding free energy” value is 0.25 kcal/mol.
Regarding TCTGGCACGTGTGGGC, the “relative binding free energy” value was 0.04 kcal/mol.
As to GCGGGCACGTGTTTTG, the “relative binding free energy” value was -0.08 kcal/mol.
Turning to GTACGCACGTGTGGGC, the “relative binding free energy” value is -0.11 kcal/mol.
On to ACTGTCACGTGTGTAG, for which the “relative binding free energy” value was found to be 0.02 kcal/mol.
The figure for TCGTACACGTGTTTAG is 0.03 kcal/mol; for GGCTGCACGTGGGTCG it is -0.09 kcal/mol.
The figure for AGCTTCACGTGGTAGT is 0.13 kcal/mol; for GGTCTCACGTGAGATG it is 0.35 kcal/mol; for GGAATCACGTGGATTT it is 0.35 kcal/mol.
Then TCTATCACGTGTATGT, with 0.12 kcal/mol.
In the case of TCTGGCACGTGTATTA, the “relative binding free energy” value is -0.06 kcal/mol.
For CTTGTCACGTGTGCCT, the “relative binding free energy” value was 0.22 kcal/mol.
On to AGGAGCACGTGGCGTG, for which the “relative binding free energy” value was -0.18 kcal/mol.
AGATTCACGTGAGTTG: the “relative binding free energy” value was 0.46 kcal/mol.
Then TTCATCACGTGTGTGA, with 0.07 kcal/mol; and TGAAGCACGTGATGTT, with 0.06 kcal/mol.
In the case of TTAAGCACGTGATAGT, the “relative binding free energy” value came to 0.08 kcal/mol.
For the sequence GTGTTCACGTGGATAA, the “relative binding free energy” value was determined as 0.29 kcal/mol.
TTTCGCACGTGAGGTC: the “relative binding free energy” value worked out at 0.11 kcal/mol.
Then ATTGTCACGTGGTAGT, with 0.07 kcal/mol; and AAAGTCACGTGTAGAT, with 0.31 kcal/mol.
TTAATCACGTGGTGCT: the “relative binding free energy” value is 0.05 kcal/mol.
Then ATTATCACGTGTAGGG, with 0.16 kcal/mol.
On to AATGTCACGTGGATTG, for which the “relative binding free energy” value was 0.21 kcal/mol.
With ACGGTCACGTGATTTG, the “relative binding free energy” value is 0.22 kcal/mol.
Regarding TCAGCCACGTGTGGGT, the “relative binding free energy” value was 0.01 kcal/mol.
Turning to GGAGTCACGTGTAGTA, the “relative binding free energy” value amounted to 0.13 kcal/mol.
With TTAAGCACGTGGAATT, the “relative binding free energy” value was -0.08 kcal/mol.
TGAACCACGTGGAGGG: the “relative binding free energy” value is -0.12 kcal/mol.
GTAGTCACGTGTGGTT: the “relative binding free energy” value was found to be 0.28 kcal/mol.
With CACTGCACGTGGGGTT, the “relative binding free energy” value is -0.07 kcal/mol.
As for TAAGTCACGTGTATGC, the “relative binding free energy” value was found to be 0.01 kcal/mol.
With GTAGTCACGTGAGGAA, the “relative binding free energy” value amounted to 0.38 kcal/mol.
With TGTTTCACGTGTTTGC, the “relative binding free energy” value is 0.1 kcal/mol.
With TTACTCACGTGTAGTG, the “relative binding free energy” value was determined as 0.18 kcal/mol.
As for ATGAGCACGTGGTTAG, the “relative binding free energy” value is -0.18 kcal/mol.
As to GTGGACACGTGCAGTT, the “relative binding free energy” value is -0.13 kcal/mol.
Regarding GTGGCCACGTGAGGGA, the “relative binding free energy” value came out at 0.14 kcal/mol.
On to AGATTCACGTGGTTCT, for which the “relative binding free energy” value is 0.3 kcal/mol.
For the sequence TATTCCACGTGTGTAT, the “relative binding free energy” value was 0.07 kcal/mol.
Regarding TGTTGCACGTGGAAAT, the “relative binding free energy” value was -0.02 kcal/mol.
For GGGTTCACGTGGTAGA, the “relative binding free energy” value is 0.21 kcal/mol.
Regarding TAGGGCACGTGTGGGT, the “relative binding free energy” value worked out at 0.04 kcal/mol.
TTTCTCACGTGTGTGC: the “relative binding free energy” value stood at 0.19 kcal/mol.
AGATGCACGTGTGGGT: the “relative binding free energy” value was 0.02 kcal/mol.
Consider TGAATCACGTGGGCGC, for which the “relative binding free energy” value was 0.01 kcal/mol.
TTACACACGTGAGGGG: the “relative binding free energy” value amounted to 0.21 kcal/mol.
With GTGAGCACGTGGATTA, the “relative binding free energy” value is -0.05 kcal/mol.
Consider CGGAGCACGTGGGTTT, for which the “relative binding free energy” value is -0.13 kcal/mol.
Regarding GTTGGCACGTGTGGAG, the “relative binding free energy” value worked out at 0.06 kcal/mol.
The figure for GCGTTCACGTGGTAAA is 0.29 kcal/mol; for ATGCTCACGTGGGTAT it is 0.03 kcal/mol; for TAATTCACGTGGCTGT it is 0.21 kcal/mol.
Consider GTTTTCACGTGTTTGT, for which the “relative binding free energy” value is 0.3 kcal/mol.
Regarding TAGAGCACGTGTAGGA, the “relative binding free energy” value was -0.12 kcal/mol.
The figure for GGACGCACGTGGCGGT is -0.23 kcal/mol; for TTCTGCACGTGTGGCA it is -0.03 kcal/mol; for GGTATCACGTGGGCCT it is 0.19 kcal/mol.
Then CGGCACACGTGGGGGG, with -0.13 kcal/mol.
As to TTCTGCACGTGAAGTT, the “relative binding free energy” value is 0.26 kcal/mol.
As for TTTGACACGTGTTAAT, the “relative binding free energy” value came out at 0.02 kcal/mol.
In the case of ATTTGCACGTGTCGCT, the “relative binding free energy” value is -0.07 kcal/mol.
For AGTTTCACGTGGGCTT, the “relative binding free energy” value was determined as 0.1 kcal/mol.
As for TATCACACGTGAAGGG, the “relative binding free energy” value is 0.4 kcal/mol.
Then GCTGACACGTGGGTTT, with -0.12 kcal/mol; and GATATCACGTGGGTGA, with 0.1 kcal/mol.
Consider GTGCGCACGTGATCTG, for which the “relative binding free energy” value is 0.06 kcal/mol.
TGGGCCACGTGTTGAG: the “relative binding free energy” value was -0.08 kcal/mol.
Then CGGTACACGTGGGGTC, with -0.13 kcal/mol.
